# According to the supplement of paper PMC3334620:
# In all, about 33,000 sequences were measured (“E-score (-0.5 to 0.5)”: median about -0.053, highest 2% from about 0.37 on). The list shows a part of the results.
# Target: Hap1 (UniProt P0CE41)
# Assay: PBM E-score (8-mer binding enrichment) (E-score (-0.5 to 0.5)); higher = stronger / more preferred TF binding; most listed sequences are background and not binding sites
# Details: protein concentration: 200 nM; construct: GST-DNA-binding domain
# In short: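 Universal all-10-mer Agilent arrays, double-stranded by primer extension on fresh or once-stripped slides, were probed with about 100-200 nM GST-tagged yeast transcription factors made by PURExpress. Fluorescent anti-GST detected bound protein, and masliner normalised the scans. E-scores from the Universal PBM Analysis Suite were given to each ungapped eight-base word pooled with its reverse complement.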
# UniProt P0CE41, sequence (P0CE41 whole entry): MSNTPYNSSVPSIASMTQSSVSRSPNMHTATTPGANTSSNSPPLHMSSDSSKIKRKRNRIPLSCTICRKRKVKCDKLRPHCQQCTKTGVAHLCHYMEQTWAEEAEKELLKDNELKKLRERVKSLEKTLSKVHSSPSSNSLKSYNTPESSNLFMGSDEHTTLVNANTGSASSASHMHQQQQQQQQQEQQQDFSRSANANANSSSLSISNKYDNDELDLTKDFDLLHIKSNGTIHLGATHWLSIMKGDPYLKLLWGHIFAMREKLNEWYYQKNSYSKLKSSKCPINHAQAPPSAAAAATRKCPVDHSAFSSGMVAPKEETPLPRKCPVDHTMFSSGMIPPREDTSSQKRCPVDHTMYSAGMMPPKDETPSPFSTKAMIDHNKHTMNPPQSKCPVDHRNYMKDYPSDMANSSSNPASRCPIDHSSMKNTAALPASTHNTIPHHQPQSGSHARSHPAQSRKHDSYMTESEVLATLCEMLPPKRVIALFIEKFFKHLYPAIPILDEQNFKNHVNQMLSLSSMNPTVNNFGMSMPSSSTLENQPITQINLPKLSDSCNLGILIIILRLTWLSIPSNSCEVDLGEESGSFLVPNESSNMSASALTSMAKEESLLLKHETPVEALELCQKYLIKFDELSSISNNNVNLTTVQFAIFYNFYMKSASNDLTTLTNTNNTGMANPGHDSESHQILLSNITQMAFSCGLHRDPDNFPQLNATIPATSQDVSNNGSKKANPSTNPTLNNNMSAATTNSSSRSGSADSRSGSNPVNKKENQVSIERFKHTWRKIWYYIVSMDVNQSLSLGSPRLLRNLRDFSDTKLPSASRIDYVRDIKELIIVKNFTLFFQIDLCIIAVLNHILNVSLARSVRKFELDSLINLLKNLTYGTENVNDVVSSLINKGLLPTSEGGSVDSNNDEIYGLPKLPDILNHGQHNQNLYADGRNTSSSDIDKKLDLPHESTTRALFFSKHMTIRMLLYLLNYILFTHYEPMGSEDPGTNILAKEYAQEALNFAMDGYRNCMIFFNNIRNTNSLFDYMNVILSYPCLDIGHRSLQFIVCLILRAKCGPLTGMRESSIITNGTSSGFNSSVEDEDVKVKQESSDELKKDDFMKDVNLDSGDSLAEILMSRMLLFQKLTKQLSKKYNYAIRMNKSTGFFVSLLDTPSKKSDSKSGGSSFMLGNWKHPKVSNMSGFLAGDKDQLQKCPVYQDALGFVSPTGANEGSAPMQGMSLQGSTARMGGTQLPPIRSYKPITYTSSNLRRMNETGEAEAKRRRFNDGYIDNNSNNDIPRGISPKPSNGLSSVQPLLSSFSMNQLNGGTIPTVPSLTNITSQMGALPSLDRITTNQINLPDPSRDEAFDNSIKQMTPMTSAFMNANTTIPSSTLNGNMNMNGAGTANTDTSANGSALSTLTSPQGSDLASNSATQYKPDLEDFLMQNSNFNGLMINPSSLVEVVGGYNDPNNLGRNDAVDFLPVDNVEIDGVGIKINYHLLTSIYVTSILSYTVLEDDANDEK
row,Sequence,PBM E-score
1,CCATTATC,0.0766
2,CCAGTCCG,0.278
3,AGGCTTAT,-0.234
4,ATAACGGA,0.414
5,ATAGCCTA,-0.189
6,GTCTTAGA,-0.162
7,CGTGCAAC,-0.117
8,AATACAGG,-0.00816
9,GCTGCTAA,0.0391
10,ATCAGATC,-0.102
11,CAATTGTA,-0.0426
12,ACAACCCC,0.128
13,GATGGTAC,-0.099
14,AGACTACC,0.00543
15,ATCAAACC,-0.0217
16,GCATAGCC,-0.114
17,AACGAGTA,-0.0745
18,CGTGGATA,0.0211
19,AAGCGGTC,0.0865
20,ATCCAGTC,0.0348
21,GCGGTACA,0.134
22,ACGTTCAG,-0.278
23,AGCACACT,-0.0831
24,CTAACGAA,-0.0184
25,GGGTGAAC,0.0631

row,Sequence,PBM E-score
1,CTGTTCGA,-0.175
2,AAGTGATT,-0.0267
3,ATTCCTCC,0.205
4,CTGTTGCC,-0.223
5,GACTTTTA,0.00762
6,ATAGACCG,0.123
7,CTTCGCTC,0.13
8,CTGCCGTC,0.101
9,GAAATCCA,0.11
10,GGTTAATA,0.154
11,CAGCTGGG,-0.156
12,AGGGACTG,-0.157
13,ATACGCGG,0.217
14,ACGATTAG,-0.153
15,GTGTTTAA,0.0435
16,GCAAAAGA,-0.107
17,ATAGCCCG,0.173
18,ATGGGAAA,-0.193
19,CACTCCAA,-0.136
20,CAAAAGTC,-0.0737
21,ATAGCTCC,0.124
22,GCTATACA,-0.197
23,ACCATAGT,-0.0861
24,GTGTCTTA,-0.121
25,CGCCATCC,-0.00934

row,Sequence,PBM E-score
1,GTAAACAA,0.0424
2,GTTCAATA,-0.134
3,AAGATCCA,-0.0332
4,CTTTCTTA,-0.125
5,CTTCCGGA,0.404
6,AGTACGCG,-0.0938
7,GACTCGGC,0.186
8,GCGTAATA,-0.00778
9,TATCCCCA,0.0486
10,GAATAGTC,-0.111
11,ACTGGGTC,-0.135
12,TGGCGCCA,-0.0689
13,GGAAAGAA,0.135
14,ATGGTATA,-0.254
15,TGCGCCAA,-0.0214
16,CGGGGTCA,0.216
17,CCTGGGAC,-0.271
18,CCCTCCCA,-0.0175
19,AACAAGTA,-0.139
20,AACCTCTG,-0.182
21,GCTTACGA,-0.222
22,AAAGAAAA,-0.0471
23,CGTCTCAA,-0.225
24,GTAATAGA,-0.0486
25,ATTCTAAC,-0.177

row,Sequence,PBM E-score
1,AATTTACA,-0.277
2,AGTATACG,-0.00941
3,CCCCTTAC,-0.132
4,ACTACGCC,-0.098
5,CAATAGCA,-0.0331
6,ATAACATC,-0.142
7,GAGGAATC,-0.00259
8,AATAACCA,-0.17
9,AATACAAC,-0.0796
10,CTTACCAC,-0.0818
11,ATGATTAC,-0.0853
12,ACATTCAG,-0.104
13,AGCCAGTA,-0.178
14,AAATAAAA,-0.00749
15,TAGATATA,0.137
16,GTTGCGAA,-0.0486
17,TCGGGCAA,0.277
18,AGACAGCG,0.0184
19,GTCGGTAA,0.198
20,ATATAAAC,-0.0674
21,CGCACGGC,0.0537
22,AGTCGGCC,0.289
23,GGGTTTAA,0.387
24,TCCACGAA,-0.146
25,CATGAGGA,-0.0511

row,Sequence,PBM E-score
1,CCCCACGA,-0.11
2,GACATTAA,0.102
3,CGACTTGC,-0.0708
4,TACAGCTA,-0.159
5,CGTGAAAC,-0.0905
6,ACAATGAT,-0.141
7,GTGAGGAA,-0.0809
8,ACGCAAAT,0.0549
9,AAACGAGT,0.00304
10,AACGATGC,-0.264
11,CTCAATGC,-0.145
12,AGTTTCAA,-0.135
13,ATGTTGAA,-0.0843
14,AGCTCCTC,-0.219
15,CCGTGCCC,0.0252
16,CTCACGTC,-0.0616
17,CGGGACTA,0.313
18,AAAATATG,0.0591
19,GAAACGAA,-0.00746
20,CCCAATTA,-0.0391
21,CCACATGA,-0.19
22,GAAGTGAC,-0.0852
23,CGAAGGGC,-0.00221
24,ACGTTTAG,-0.359
25,GCCAATTA,-0.102

row,Sequence,PBM E-score
1,CGTGTGTC,-0.0353
2,ATGCTTCG,0.103
3,ACAGGATC,-0.206
4,CAGGACCG,-0.00407
5,CTACAGGA,-0.173
6,AAATGATC,-0.105
7,CGGGCTCC,0.155
8,GGATGCGA,-0.0284
9,CTTATCAC,-0.151
10,AGGAAACT,-0.0902
11,ACCCTATA,-0.306
12,ATTCCATC,-0.106
13,GGCCTTAC,0.179
14,CGGGCGGA,0.356
15,AAAGATAA,-0.0925
16,ACCCGGAA,0.346
17,CATCCCCG,0.356
18,GTCTAGAA,-0.0734
19,TATTTAGA,-0.00676
20,CTGAAGGC,-0.295
21,CAAAATTC,0.103
22,ATGATAGC,-0.119
23,GAAAGTCA,-0.13
24,AAAGCCCA,-0.0645
25,AAGAATTA,-0.0784

row,Sequence,PBM E-score
1,TGCCGACA,0.223
2,TACAAGCA,-0.03
3,CCATTGTA,-0.0491
4,AATGCACT,-0.118
5,ACGTATAT,-0.168
6,CCCGAAAC,0.208
7,ATCTGGTC,-0.0965
8,TGATGCAA,-0.223
9,GACAAACA,-0.0573
10,GGGCTTCA,0.0517
11,ATAGTCAG,-0.152
12,CAAACGCG,0.0937
13,GCGTTAGA,0.198
14,AATTAACG,0.131
15,ATTACCTC,0.105
16,AACGCGAC,-0.0971
17,ATGCAAAG,-0.0808
18,ACAATAAT,0.00982
19,CGACCTCG,0.134
20,TCACGAGA,-0.298
21,CACTCCTG,-0.202
22,ACTGAAGC,-0.119
